# The supplement of paper PMC4604168 (melanoma cell lines)
# This is one part of the list. Most values come without repeats; read them as rough.
# Test system: A101D
# Assay: cell count relative to DMSO control; melanoma cells; higher = more viable cells
# Settings: library dose: standard library concentration; 72 h
# 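Note: cells treated in 1,536-well plates, then fixed and DAPI-stained, with nuclei counted from automated high-throughput microscope images.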
row,Structure (SMILES),cell count [%]
1,"NC(=O)c1ccc(N(C(N)=O)c2c(F)cccc2F)nc1-c1ccc(F)cc1F + N.N.[Cl][Pt][Cl] [cisplatin] (first compound 2 µM, partner dose 8 µM)",78.4
2,"Cn1cnc2c(F)c(Nc3ccc(Br)cc3Cl)c(C(=O)NOCCO)cc21 [selumetinib] + C[C@]12O[C@H](C[C@]1(O)CO)n1c3ccccc3c3c4c(c5c6ccccc6n2c5c31)CNC4=O [Lestaurtinib] (first compound 0.075 µM, partner dose 0.02 µM)",60.4
3,"C[C@@H](N)c1ccc(C(=O)Nc2ccnc3[nH]ccc23)cc1 + Cn1cc(C2=C(c3cn(C4CCN(Cc5ccccn5)CC4)c4ccccc34)C(=O)NC2=O)c2ccccc21 [Enzastaurin] (first compound 2 µM, partner dose 4 µM)",74.6
4,"C[C@@H](N)c1ccc(C(=O)Nc2ccnc3[nH]ccc23)cc1 + C[As](C)SC[C@H](NC(=O)CC[C@H](N)C(=O)O)C(=O)NCC(=O)O [Darinaparsin] (first compound 2 µM, partner dose 2 µM)",67.4
5,"NC1(c2ccc(-c3nc4ccn5c(=O)[nH]nc5c4cc3-c3ccccc3)cc2)CCC1 + C[As](C)SC[C@H](NC(=O)CC[C@H](N)C(=O)O)C(=O)NCC(=O)O [Darinaparsin] (first compound 2 µM, partner dose 2 µM)",83
6,"CCCCCCCCCCCCCCCCCCOP(=O)([O-])OC1CC[N+](C)(C)CC1 [Perifosine] + N.N.[Cl][Pt][Cl] [cisplatin] (first compound 2 µM, partner dose 8 µM)",76.4
7,"O=C(Nc1cc(C(F)(F)F)cc(C(F)(F)F)c1)c1cc(Cl)ccc1O + Cn1cc(C2=C(c3cn(C4CCN(Cc5ccccn5)CC4)c4ccccc34)C(=O)NC2=O)c2ccccc21 [Enzastaurin] (first compound 0.08 µM, partner dose 4 µM)",55.6
8,"Cc1cn(-c2cc(NC(=O)c3ccc(C)c(Nc4nccc(-c5cccnc5)n4)c3)cc(C(F)(F)F)c2)cn1 [nilotinib] + Cn1cc(C2=C(c3cn(C4CCN(Cc5ccccn5)CC4)c4ccccc34)C(=O)NC2=O)c2ccccc21 [Enzastaurin] (first compound 1 µM, partner dose 4 µM)",103
9,"CN(c1ncccc1CNc1nc(Nc2ccc3c(c2)CC(=O)N3)ncc1C(F)(F)F)S(C)(=O)=O + N.N.[Cl][Pt][Cl] [cisplatin] (first compound 0.4 µM, partner dose 8 µM)",70.7
10,"COc1ccc(C2=N[C@@H](c3ccc(Cl)cc3)[C@@H](c3ccc(Cl)cc3)N2C(=O)N2CCNC(=O)C2)c(OC(C)C)c1 [Nutlin-3] + C[C@]12O[C@H](C[C@]1(O)CO)n1c3ccccc3c3c4c(c5c6ccccc6n2c5c31)CNC4=O [Lestaurtinib] (first compound 0.5 µM, partner dose 0.02 µM)",55.9
11,"C[C@]1(O)C[C@@H](c2nc(-c3ccc4ccc(-c5ccccc5)nc4c3)c3c(N)nccn32)C1 + C[As](C)SC[C@H](NC(=O)CC[C@H](N)C(=O)O)C(=O)NCC(=O)O [Darinaparsin] (first compound 2 µM, partner dose 2 µM)",104
12,"CCCCCCCCCCCCCCCCCCOP(=O)([O-])OC1CC[N+](C)(C)CC1 [Perifosine] + C[As](C)SC[C@H](NC(=O)CC[C@H](N)C(=O)O)C(=O)NCC(=O)O [Darinaparsin] (first compound 2 µM, partner dose 2 µM)",96.5

# Test system: A2058
# Assay: as above
# Settings: library dose: standard library concentration; 72 h
row,Structure (SMILES),cell count [%]
1,"O=c1[nH]nc(Sc2ncc([N+](=O)[O-])s2)n1-c1ccc2c(c1)OCCO2 + C[C@]12O[C@H](C[C@]1(O)CO)n1c3ccccc3c3c4c(c5c6ccccc6n2c5c31)CNC4=O [Lestaurtinib] (first compound 1 µM, partner dose 0.02 µM)",96
2,"COc1cc([C@@H]2c3cc4c(cc3[C@@H](O[C@@H]3O[C@@H]5CO[C@@H](C)O[C@H]5[C@H](O)[C@H]3O)[C@H]3COC(=O)[C@H]23)OCO4)cc(OC)c1O [etoposide] + N.N.[Cl][Pt][Cl] [cisplatin] (first compound 0.1 µM, partner dose 8 µM)",92.4
3,"CC[C@]1(O)C[C@H]2CN(CCc3c([nH]c4ccccc34)[C@@](C(=O)OC)(c3cc4c(cc3OC)N(C=O)[C@H]3[C@@](O)(C(=O)OC)[C@H](OC(C)=O)[C@]5(CC)C=CCN6CC[C@]43[C@@H]65)C2)C1 [vincristine] + C[As](C)SC[C@H](NC(=O)CC[C@H](N)C(=O)O)C(=O)NCC(=O)O [Darinaparsin] (first compound 0.0005 µM, partner dose 2 µM)",6.36
4,"O=C(/C=C/c1cccnc1)NCCCCC1CCN(C(=O)c2ccccc2)CC1 + N.N.[Cl][Pt][Cl] [cisplatin] (first compound 0.05 µM, partner dose 8 µM)",127
5,"CC1(C)CCC(c2ccc(Cl)cc2)=C(CN2CCN(c3ccc(C(=O)NS(=O)(=O)c4ccc(N[C@H](CCN5CCOCC5)CSc5ccccc5)c(S(=O)(=O)C(F)(F)F)c4)cc3)CC2)C1 + C[As](C)SC[C@H](NC(=O)CC[C@H](N)C(=O)O)C(=O)NCC(=O)O [Darinaparsin] (first compound 2 µM, partner dose 2 µM)",65.2
6,"N#CC[C@H](C1CCCC1)n1cc(-c2ncnc3[nH]ccc23)cn1 [ruxolitinib] + C[C@]12O[C@H](C[C@]1(O)CO)n1c3ccccc3c3c4c(c5c6ccccc6n2c5c31)CNC4=O [Lestaurtinib] (first compound 5 µM, partner dose 0.02 µM)",76.8
7,"C[C@@H](Oc1cc(-c2cnn(C3CCNCC3)c2)cnc1N)c1c(Cl)ccc(F)c1Cl [Crizotinib] + C[As](C)SC[C@H](NC(=O)CC[C@H](N)C(=O)O)C(=O)NCC(=O)O [Darinaparsin] (first compound 1 µM, partner dose 2 µM)",91.6
8,"CC[C@]1(O)C[C@H]2CN(CCc3c([nH]c4ccccc34)[C@@](C(=O)OC)(c3cc4c(cc3OC)N(C=O)[C@H]3[C@@](O)(C(=O)OC)[C@H](OC(C)=O)[C@]5(CC)C=CCN6CC[C@]43[C@@H]65)C2)C1 [vincristine] + Cn1cc(C2=C(c3cn(C4CCN(Cc5ccccn5)CC4)c4ccccc34)C(=O)NC2=O)c2ccccc21 [Enzastaurin] (first compound 0.0005 µM, partner dose 4 µM)",25.9
9,"CCCS(=O)(=O)Nc1ccc(F)c(C(=O)c2c[nH]c3ncc(Cl)cc23)c1F + C[As](C)SC[C@H](NC(=O)CC[C@H](N)C(=O)O)C(=O)NCC(=O)O [Darinaparsin] (first compound 0.4 µM, partner dose 2 µM)",84.6
10,"O=C(Nc1cc(C(F)(F)F)cc(C(F)(F)F)c1)c1cc(Cl)ccc1O + C[C@]12O[C@H](C[C@]1(O)CO)n1c3ccccc3c3c4c(c5c6ccccc6n2c5c31)CNC4=O [Lestaurtinib] (first compound 0.08 µM, partner dose 0.02 µM)",89.6
11,"N#CC[C@H](C1CCCC1)n1cc(-c2ncnc3[nH]ccc23)cn1 [ruxolitinib] + C[As](C)SC[C@H](NC(=O)CC[C@H](N)C(=O)O)C(=O)NCC(=O)O [Darinaparsin] (first compound 5 µM, partner dose 2 µM)",75.9
12,"CS(=O)(=O)c1ccc(C(=O)Nc2ccc(Cl)c(-c3ccccn3)c2)c(Cl)c1 [vismodegib] + N.N.[Cl][Pt][Cl] [cisplatin] (first compound 5 µM, partner dose 8 µM)",87
13,"C=CCNC1=C2C[C@@H](C)C[C@H](OC)[C@H](O)[C@@H](C)/C=C(\C)[C@H](OC(N)=O)[C@@H](OC)/C=C\C=C(/C)C(=O)NC(=CC1=O)C2=O [Tanespimycin] + C[As](C)SC[C@H](NC(=O)CC[C@H](N)C(=O)O)C(=O)NCC(=O)O [Darinaparsin] (first compound 0.01 µM, partner dose 2 µM)",55.6
14,"CNC(=O)c1cc(Oc2ccc(NC(=O)Nc3ccc(Cl)c(C(F)(F)F)c3)cc2)ccn1 [sorafenib] + C[As](C)SC[C@H](NC(=O)CC[C@H](N)C(=O)O)C(=O)NCC(=O)O [Darinaparsin] (first compound 2 µM, partner dose 2 µM)",89.9
15,"Cc1cn(-c2cc(NC(=O)c3ccc(C)c(Nc4nccc(-c5cccnc5)n4)c3)cc(C(F)(F)F)c2)cn1 [nilotinib] + C[As](C)SC[C@H](NC(=O)CC[C@H](N)C(=O)O)C(=O)NCC(=O)O [Darinaparsin] (first compound 1 µM, partner dose 2 µM)",101
16,"CS(=O)(=O)c1ccc(C(=O)Nc2ccc(Cl)c(-c3ccccn3)c2)c(Cl)c1 [vismodegib] + C[As](C)SC[C@H](NC(=O)CC[C@H](N)C(=O)O)C(=O)NCC(=O)O [Darinaparsin] (first compound 5 µM, partner dose 2 µM)",88.8
17,"CN(c1ncccc1CNc1nc(Nc2ccc3c(c2)CC(=O)N3)ncc1C(F)(F)F)S(C)(=O)=O + C[As](C)SC[C@H](NC(=O)CC[C@H](N)C(=O)O)C(=O)NCC(=O)O [Darinaparsin] (first compound 0.4 µM, partner dose 2 µM)",96.2
